Patent publication US10047091B2, “Ionic liquid, lubricating agent, and magnetic recording medium” (Dexerials Corporation, priority 2012, dated 2018)
Entries with a single value are a further part of the results.

Experiment: TG/DTA thermal analysis
Assay type: physicochemical
Conditions: air, 30° C. to 600° C., heating rate 10° C./min
Description: The measurement is performed in a temperature range of 30° C. to 600° C. at a heating rate of 10° C./min while introducing air at a flow rate of 200 mL/min using EXSTAR 6000 (manufactured by Seiko Instruments Inc.). As a gas chromatography mass spectrometer, 6890/5975 MSD (manufactured by Agilent Technologies, Inc.) was used. The following measurement conditions are used: column: DB-1 (15 m, diameter: 0.25 mm, membrane thickness: 0.1 μm); injection temperature: 280° C.; column temperature: initial temperature of 40° C., hold for 5 min, heated to 340° C. at the heating rate of 20° C./min, and hold at the same temperature; mass spectrometric unit: 5975MSD; MS detection mode: EI^+; quadrupole temperature: 150° C.; ion source temperature: 300° C.; mass scanning range: m/z 33-700; and calibration: PFTBA.
Ionic liquids obtained from Examples 2, 28, and 29 and Comparative Examples 16 and 17 were subjected to a TG measurement using EXSTAR 6000 (Seiko Instruments Inc.) (Examples 30 and 31, and Comparative Examples 18 and 19). Z-DOL was also subjected to the TG measurement (Comparative Example 20). Weight loss was measured while purging air in a temperature range of 30° C. to 600° C. at a heating rate of 10° C./min.
The TG/DTA measurement was performed in a temperature range of 30° C. to 600° C. at a heating rate of 10° C./min while introducing air at a flow rate of 200 mL/min using EXSTAR 6000 (manufactured by Seiko Instruments Inc.). As a gas chromatography mass spectrometer, 6890/5975 MSD (manufactured by Agilent Technologies, Inc.) was used. The following measurement conditions were used: column: DB-1 (15 m, diameter: 0.25 mm, membrane thickness: 0.1 μm); injection temperature: 280° C.; column temperature: initial temperature of 40° C., hold for 5 min, heated to 340° C. at the heating rate of 20° C./min, and hold at the same temperature; mass spectrometric unit: 5975MSD; MS detection mode: EI^+; quadrupole temperature: 150° C.; ion source temperature: 300° C.; mass scanning range: m/z 33-700; and calibration: PFTBA.

| Structure (SMILES) | Exothermic peak temperature in DTA measurement (first exothermic peak) [°C] | Exothermic peak temperature in DTA measurement (second exothermic peak) [°C] |
| --- | --- | --- |
| CCCCCCCCCCCCCCCCCCC1CCCCN2CCCN=C12.O=S(=O)(O)C(F)(F)C(F)(F)C(F)(F)C(F)(F)C(F)(F)C(F)(F)C(F)(F)C(F)(F)F (stereo not shown) [Ionic liquid 15, 6-n-octadecyl-1,8-diazabicyclo[5.4.0]-7-undecene (C18-DBU) pentadecafluorooctane sulfonic acid salt] | 434 | 468 |
| CCCCCCCCCCCCCCCCCCN1CCCN2CCCN=C12.O=S(=O)(O)C(F)(F)C(F)(F)C(F)(F)C(F)(F)C(F)(F)C(F)(F)C(F)(F)C(F)(F)F [Ionic liquid 17, 7-n-octadecyl-1,5,7-triazabicyclo[4.4.0]-5-decene (C18-TBD) pentadecafluorooctane sulfonic acid salt] | 412 | 444 |
